In all, about 50,000 compounds went through this assay and about 800 (1.6%) showed an effect of 50% or more. The list shows a part of the results.
target: Bcl-2-like protein 10 (Homo sapiens) (UniProt Q9HD36); assay: Phenotype converters, Bcl-B/TR3 peptide binding displacement, primary biochemical FP (AID 1240); settings: GST-Bcl-B / FITC-TR3 peptide fluorescence polarization; stronger effect = higher value; compound at 3.75 mg/L;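 also: 0% = Bcl-B with tracer peptide and DMSO and 100% = tracer peptide lacking Bcl-B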
UniProt Q9HD36, sequence (Q9HD36 whole entry, looked up): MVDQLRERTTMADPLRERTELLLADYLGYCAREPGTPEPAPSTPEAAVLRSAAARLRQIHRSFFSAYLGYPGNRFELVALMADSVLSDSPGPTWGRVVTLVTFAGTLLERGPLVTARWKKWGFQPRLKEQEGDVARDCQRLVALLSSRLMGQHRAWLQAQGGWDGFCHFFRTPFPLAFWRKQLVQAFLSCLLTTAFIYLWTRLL

**Q.** With `COCCOC(=O)c1c(C)oc2ccc(OC(=O)c3sc4ccccc4c3Cl)cc12` as the molecule, how does the displacement read?
**A.** 7.3%

**Q.** How did the displacement turn out when `CCOC(=O)c1c(NC(=O)c2ccc([N+](=O)[O-])cc2)sc2c1CCN(C(=O)OCC)C2` was run?
**A.** -5.4%

**Q.** `COC(=O)c1cc(C(=O)NC2CCCCCC2)cc([N+](=O)[O-])c1` was tested. Which displacement did it give?
**A.** 5.9%

**Q.** Which displacement does the source give for `CC(=O)Nc1ccccc1C(=O)N1CCN(c2ccccc2)CC1` here?
**A.** -5.1%

**Q.** For `O=C(NCc1ccccc1Cl)C(=O)Nc1ccccc1F`, which displacement is on record?
**A.** 3.8%

**Q.** `O=[N+]([O-])c1ccc(-c2cc(-c3ccc(I)cc3)n[nH]2)cc1` was tested. Which displacement did it give?
**A.** 0.5%

**Q.** For `COc1ccc(Cc2nnc(N)s2)cc1`, which displacement is on record?
**A.** 10.9%

**Q.** For `CC1=CC(=O)C=C/C1=N/OC1=C(O/N=C2/C=CC(=O)C=C2C)C(=O)c2ccccc2C1=O`, which displacement is on record?
**A.** 20.8%

**Q.** For `Cc1ccc(O)c(NC(=O)c2cc3n(n2)C(C(F)(F)F)CC(c2ccc(F)cc2)N3)c1` (stereo not given), which displacement is on record?
**A.** 0.7%

**Q.** Which displacement does the source give for `COc1ccc(C(=O)Nc2ccc(F)c([N+](=O)[O-])c2)cc1Br` here?
**A.** 15%

**Q.** Which displacement does the source give for `CC(=O)N1c2ccccc2C(N(C(=O)c2ccc([N+](=O)[O-])cc2)c2ccccc2)CC1C` (stereo not given) here?
**A.** -4%

**Q.** For `CCOC(=O)/C(C#N)=C/c1ccc(OCc2c(C)no[n+]2[O-])c(OC)c1`, which displacement is on record?
**A.** -3.8%

**Q.** Which displacement does the source give for `Cn1c(O)c(N=NS(=O)(=O)c2ccccc2)c2ccccc21` here?
**A.** 10%

**Q.** How did the displacement turn out when `Cc1ccc(NCCCC(=O)N/N=C/c2cccs2)cc1` was run?
**A.** -6.6%

**Q.** For `CCOC(=O)C1=C(C)NC(=S)NC1c1cccc(Br)c1` (stereo not given), which displacement is on record?
**A.** 8.9%

**Q.** Which displacement does the source give for `O=C(NCCc1ccccc1)c1ccc(Cl)c([N+](=O)[O-])c1` here?
**A.** 2.2%

**Q.** With `O=C(COc1ccccc1Cl)Nc1ccc(O)cc1C(=O)O` as the molecule, how does the displacement read?
**A.** 10%

**Q.** For `Cc1cccc(/C=C2/SC(=S)N(CN3CCCCC3)C2=O)c1`, which displacement is on record?
**A.** 11.3%

**Q.** `CC(C)(C)NC(=O)NC12CC3CC(CC(C3)C1)C2` was tested. Which displacement did it give?
**A.** 17.9%

**Q.** With `O=C(Nc1nccs1)c1ccc(N2C(=O)CCC2=O)cc1` as the molecule, how does the displacement read?
**A.** 7.8%

**Q.** How did the displacement turn out when `O=C(CC1Sc2ccc(C(F)(F)F)cc2NC1=O)Nc1cccc(Cl)c1` (stereo not given) was run?
**A.** -13.4%

**Q.** `Cc1cc(C=O)c(C)n1-c1cccc([N+](=O)[O-])c1` was tested. Which displacement did it give?
**A.** 12.3%

**Q.** Which displacement does the source give for `O=C(NC(Nc1ccc(Br)cc1)C(=O)c1ccccc1)c1ccco1` (stereo not given) here?
**A.** 4.5%

**Q.** How did the displacement turn out when `CCOc1ccc(NC(=O)/C=C/c2cccc(C(F)(F)F)c2)cc1` was run?
**A.** 15.4%

**Q.** `COc1ccc(OC)c(NC(=O)c2ccc(-c3ccc(C)c(Cl)c3)o2)c1` was tested. Which displacement did it give?
**A.** 0.4%

**Q.** Which displacement does the source give for `CC1CCCN(Cc2c(O)[nH]c(=S)[nH]c2=O)C1` (stereo not given) here?
**A.** -4%

**Q.** For `Cc1ccc(-c2nnc(NC(=O)Nc3ccccc3)s2)cc1C`, which displacement is on record?
**A.** 9.8%

**Q.** For `CCCCNC(=O)c1cn(-c2ccccc2)nc1-c1ccccc1`, which displacement is on record?
**A.** 17.4%

**Q.** How did the displacement turn out when `CCOC(=O)c1nc(NC(=O)c2cc3ccccc3o2)sc1C` was run?
**A.** -2.7%

**Q.** `Cc1ccc(/C(O)=C2/C(=O)C(=O)N(CCCCCC(=O)O)C2c2cccc([N+](=O)[O-])c2)cc1` (stereo not given) was tested. Which displacement did it give?
**A.** 25.6%

**Q.** How did the displacement turn out when `O=C(CSCC(=O)Nc1cccc(C(F)(F)F)c1)Nc1ccccc1` was run?
**A.** -10.4%

**Q.** For `O=C(NNC(=O)c1ccc2c(c1)OCO2)NC1CCCCC1`, which displacement is on record?
**A.** 10.1%

**Q.** For `Cc1ccc(S(=O)(=O)N/N=C/c2ccc(-c3ccc([N+](=O)[O-])cc3Br)o2)cc1`, which displacement is on record?
**A.** 2.5%

**Q.** Which displacement does the source give for `O=C(Nc1ccccc1O)c1ccc(-c2ccc(Cl)cc2Cl)o1` here?
**A.** 8.6%

**Q.** With `COC(=O)c1cc(C(=O)Nc2cccc(Br)c2)cc([N+](=O)[O-])c1` as the molecule, how does the displacement read?
**A.** 5.9%

**Q.** Which displacement does the source give for `COc1ccc(OC)c(NC(=O)CSc2nc3ccccc3s2)c1` here?
**A.** -2.8%

**Q.** With `CCC(C(=O)Nc1ccc(Br)cc1F)c1ccccc1` (stereo not given) as the molecule, how does the displacement read?
**A.** -2.6%

**Q.** Which displacement does the source give for `O=[N+]([O-])c1ccc(Sc2nc3ccccc3s2)nc1` here?
**A.** 49.1%

**Q.** With `O=C(Nc1ccc(Br)cc1)c1cnccn1` as the molecule, how does the displacement read?
**A.** 26.7%

**Q.** `CCOC(=O)c1c(CN2CCOCC2)n(C)c2cc(Br)c(O)cc12` was tested. Which displacement did it give?
**A.** 16.2%

**Q.** `CCN(CC)C(=O)c1sc(NC(=O)c2ccco2)c(C(=O)OC(C)C)c1C` was tested. Which displacement did it give?
**A.** -1.8%

**Q.** With `O=C(c1ccccc1SCc1ccccc1)N1CCOCC1` as the molecule, how does the displacement read?
**A.** -8.4%

**Q.** How did the displacement turn out when `Clc1ccccc1CSc1nc2ccccc2o1` was run?
**A.** -4.2%

**Q.** `N#Cc1c(NC(=O)c2cc3nc(-c4ccccc4)cc(C(F)(F)F)n3n2)sc2c1CCCC2` was tested. Which displacement did it give?
**A.** -10.7%

**Q.** How did the displacement turn out when `CC(=O)c1sc(NC(=O)c2cc(Cl)ccc2[N+](=O)[O-])nc1C` was run?
**A.** 6.6%

**Q.** `CCOc1ccccc1-c1nc(SCC(N)=O)n[nH]1` was tested. Which displacement did it give?
**A.** -15.6%

**Q.** `COc1cc(N=Cc2c(O)n(-c3ccc(Cl)cc3)c(=O)[nH]c2=O)cc(OC)c1` was tested. Which displacement did it give?
**A.** 70.5%

**Q.** For `O=C(NC1CCCCC1)C1CC2c3ccccc3C1c1ccccc12` (stereo not given), which displacement is on record?
**A.** -5.2%

**Q.** `COc1ccc(C(=O)N2CCN(C(=O)c3ccncc3)CC2)cc1` was tested. Which displacement did it give?
**A.** 18.7%

**Q.** With `COCCOC(=O)c1c(C)oc2ccc(OCc3cccc(Br)c3)cc12` as the molecule, how does the displacement read?
**A.** 9.3%

**Q.** Which displacement does the source give for `COc1ccc(N(CC(=O)NCc2ccco2)S(=O)(=O)c2ccccc2)cc1Cl` here?
**A.** 5.3%

**Q.** `NC(=O)c1ccc(NC(=O)c2ccccc2C(=O)O)cc1` was tested. Which displacement did it give?
**A.** 1.8%

**Q.** With `CCC1CCc2c(sc(NC(=O)c3cccs3)c2C(N)=O)C1` (stereo not given) as the molecule, how does the displacement read?
**A.** -7.2%

**Q.** `CN1CCN(CN2C(=O)C(=O)c3ccccc32)CC1` was tested. Which displacement did it give?
**A.** -3%

**Q.** Which displacement does the source give for `O=C1NC(=Nc2ccccc2)S/C1=C/c1cccc(C(F)(F)F)c1` here?
**A.** -12.5%

**Q.** How did the displacement turn out when `CCN(CC)S(=O)(=O)c1cc(C(=O)Nc2cccc(C(=O)O)c2)ccc1Cl` was run?
**A.** -5.2%

**Q.** How did the displacement turn out when `COC(=O)C1=C(C(=O)OC)SC(=C2C(=S)C(C)(C)N(C(=O)c3cccc(F)c3)c3ccc(OC)cc32)S1` was run?
**A.** -7.9%

**Q.** For `CCC(=O)Oc1ccc2c(C)c(CC)c(=O)oc2c1C`, which displacement is on record?
**A.** 4.6%

**Q.** For `Cc1nc2cc(-c3ccccc3Cl)[nH]n2c(=O)c1Cl`, which displacement is on record?
**A.** 11.8%

**Q.** Which displacement does the source give for `CC1=C(C(=O)OCC2CCCO2)C(c2ccccc2Cl)NC(=O)N1` (stereo not given) here?
**A.** 10.5%

**Q.** Which displacement does the source give for `Cn1cc(/C=C/c2nc3ccccc3c(=O)n2Cc2ccccc2)c2ccccc21` here?
**A.** 136%

**Q.** `CCC(=O)NC(Nc1ccc(OC)cc1)(C(F)(F)F)C(F)(F)F` was tested. Which displacement did it give?
**A.** -2.7%

**Q.** For `COc1ccccc1OCCOc1c(I)cc(/C=C2/SC(=S)N(C)C2=O)cc1OC`, which displacement is on record?
**A.** 1.9%

**Q.** With `O=C1CC(Cc2ccc(Cl)cc2)C(=O)N1c1ccc2ccccc2n1` (stereo not given) as the molecule, how does the displacement read?
**A.** 2.3%

**Q.** With `CCc1c(C)nn2cn[n+](Cc3ccccc3Cl)c2c1[O-]` as the molecule, how does the displacement read?
**A.** 8.6%

**Q.** How did the displacement turn out when `COc1ccc(/C=C/C(=O)Nc2ccc(F)cc2)cc1Br` was run?
**A.** 7.8%

**Q.** For `O=C1C=CC(=O)C(c2cccc(Cl)c2)=C1`, which displacement is on record?
**A.** 23.9%

**Q.** `COc1cc(/C=N/N2CCN(Cc3cccc4ccccc34)CC2)cc(Br)c1O` was tested. Which displacement did it give?
**A.** 19%

**Q.** With `O=c1c(F)cn(Cc2ccccc2)c(=O)n1Cc1ccccc1` as the molecule, how does the displacement read?
**A.** -4.3%

**Q.** With `CC(C)CNC(=O)c1cccc(NC(=O)c2ccccc2Cl)c1` as the molecule, how does the displacement read?
**A.** 2.7%
